# According to patent US9096585B2 (Icahn School of Medicine at Mount Sinai, priority 2010, dated 2015):
# What was measured:
# influenza A virus [1] = tested on: influenza A virus
# [2] = tested on: human adenovirus 5 (hAd5); type: cell-based; settings: A549, A3 10 μM, 24 h
# influenza A virus [3] = assay: microbe, parasite or virus in culture
# influenza A virus [4] = assay: in vitro; settings: human
SMILES,effect on the course of infection (influenza A virus [1]),titers of human adenovirus 5 (hAd5) reduced [2] [logs],"IC50 (influenza A virus [3]; A549, 24 h) [nM]","IC50 (influenza A virus [3]; WSN, 24 h) [nM]","IC50 (influenza A virus [3]; WSN, A549, 24 h) [nM]","IC50 (influenza A virus [3]; WSN, A549, read-out: IC50 for influenza virus) [nM]","IC50 (influenza A virus [3]; WSN, MEF, 24 h) [nM]",selectivity ratio (influenza A virus [4]),"inhibition of influenza virus strains of both H1N1 and H3N2 subtypes (influenza A virus [1]; A549, […], A3 10 μM, 24 h)","time of addition at which inhibition was observed (influenza A virus [1]; A549, […], A3 at its CC10, not later)","reduction in viral titers (influenza A virus [1]; A549, […], concentration of 2 μM) [logs]","viral titers reduced (influenza A virus [1]; HTBE cells, […], after 24 h) [logs]","viral titers reduced (influenza A virus [1]; MEF cells, […], similar concentration of A3)","viral titer reduction (influenza A virus [1]; influenza A/WSN/33, A549, […], 10 μM A3 or less) [log]",inhibition of viral replication (influenza A virus [1]) [logs],"Inhibition of FluA (influenza A virus [1]; A549, determined by plaque assay, Table 3) [% *]"
COc1cc2c(O)c3c(c(-c4ccc5c(c4)OCO5)c2cc1OC)C(=O)OC3 [Compound C2],did not affect the course of infection,–,–,–,–,–,–,–,–,–,–,–,–,–,–,–
Cc1[nH]c2ccc(-c3nnc(SCC(=O)N4CCCC4)o3)cc2c1C [Compound A3],–,6,540,40,178,178,1000,1500,inhibit,up to 2 h postinfection,4,4,less than 2 logs,2,–,–
CN(c1nc(-c2ccc(Br)cc2)cs1)C1CCS(=O)(=O)C1 (centres unmarked) [Compound A35],–,–,2100,–,–,–,–,–,–,–,–,–,–,–,4,99.99

# Read-outs that look alike come from different tables or passages of the source. Marks after values point to notes of the source that are not given here.
